From PubChem BioAssay AID886 (National Center for Advancing Translational Sciences (NCATS), 2007)
Where “and” joins values, the source holds several entries; their conditions need not be identical. Identical values can stand only once. Screen size: about 73,000 compounds; about 2,500 (3.4%) were called active. The shares of active, inactive and inconclusive entries below differ from those in the screen. Calls come from the whole dose curve; as a rule, active = well fitted inhibition curve with a large enough effect; inconclusive = small, poorly fitted or top-dose-only effect; inactive = no such curve, though single readings can be large or run the other way. A potency beside an inconclusive call is a rough fit, not a confirmed value.
% is set by controls: 0 for no effect and ±100 for the full control effect; potency is the fitted concentration of half-maximal effect; tags give direction and shape of the fitted curve.
Note: nearly all actives have a fitted effect of over 60% in size.

The compounds below were run against 3-hydroxyacyl-CoA dehydrogenase type-2 (Homo sapiens) (UniProt Q99714) (assay: qHTS Assay for Inhibitors of HADH2 (Hydroxyacyl-Coenzyme A Dehydrogenase, Type II)). Settings: recombinant HADH2, NADH fluorescence, beta-hydroxybutyryl-CoA; activity change, negative = inhibition: at 57.1 µM (top of the series).
Chain of UniProt Q99714 (Q99714 whole entry, looked up): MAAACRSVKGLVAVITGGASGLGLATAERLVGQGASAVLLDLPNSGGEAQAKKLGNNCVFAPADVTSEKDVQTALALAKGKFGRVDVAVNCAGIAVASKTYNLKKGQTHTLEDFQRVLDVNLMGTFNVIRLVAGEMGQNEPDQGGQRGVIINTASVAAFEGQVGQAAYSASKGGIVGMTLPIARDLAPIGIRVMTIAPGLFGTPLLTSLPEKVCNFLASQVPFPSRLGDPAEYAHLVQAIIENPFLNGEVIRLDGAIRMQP
Chain of UniProt Q99714 (Q99714 whole entry, looked up): as above
Procedure, shortened: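 NADH fluorescence (ex 360/em 450 nm) read every 30 s for 4 min; activity taken as last-minus-first time point difference. Enzyme 20 nM, NAD+ 1 mM, beta-hydroxybutyryl-CoA 90 uM, pH 9.0 Tris buffer.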
CCc1cc(=O)oc2cc(OCc3nn[nH]n3)ccc12 was tested, and the Potency was active: 25.1 µM.
CCCc1cc(N2CCCC2)n2nc(C)c(-c3ccccc3)c2n1 was tested, and the Potency was active: 31.6 µM.
In the case of COc1ccc(Cc2nc(-c3ccc(-n4cccc4)cc3)no2)cc1OC, the Potency is reported as inconclusive: 31.6 µM [inhibitor, single point].
With COc1ccc(-c2cc(C(F)(F)F)n3nc(C(=O)NCc4ccco4)cc3n2)cc1 the Potency was inconclusive: 39.8 µM [inhibitor, single point].
O=C1c2ccccc2NC(c2ccncc2)N1c1ccccn1 (configuration not stated) was tested, and the Potency was active: 31.6 µM.
In the case of O=C(NCCc1ccc(Cl)cc1)c1ncn[nH]1, the “activity change, negative = inhibition” value is reported as inactive: -0.763%.
In the case of CN1CCc2c(sc3c2C(=O)NC(c2ccco2)N3)C1 (configuration not stated), the Potency is reported as active: 25.1 µM.
For CCOC(=O)C1=C(N)OC2=C(C(=O)CCC2)C1c1cccs1 (configuration not stated), the “activity change, negative = inhibition” value was inactive: -14.8%.
In the case of O=S1(=O)CCN2C=C(Br)C=C(Br)C2=N1, the “activity change, negative = inhibition” value is reported as inactive: -5.63%.
For CCOc1ccc(NS(=O)(=O)c2ccc(OCC(=O)N3CCCC3)cc2)cc1, the “activity change, negative = inhibition” value was inactive: 8.36%.
With Cc1ccnc(NS(=O)(=O)c2cccc3nsnc23)c1 the Potency was inconclusive: 15.8 µM [inhibitor, partial curve].
CCOc1ccccc1NC(=O)N1CCC(NC(=O)c2cccc(C)c2)CC1 was tested, and the Potency was inconclusive: 25.1 µM [inhibitor, partial curve].
For O=C(NCCN1CCOCC1)c1cc(S(=O)(=O)NCCCN2CCCC2=O)ccc1Cl, the “activity change, negative = inhibition” value was inactive: 3.63%.
With Cc1cccc(OCCCc2c(C)n[nH]c2C)c1 the Potency was inconclusive: 39.8 µM [inhibitor, single point].
For CCOC(=O)c1ccc2c(c1)C1C=CCC1C(C(=O)O)N2 (configuration not stated), the Potency was active: 3.98 µM.
In the case of O=C1c2ccccc2CC1Sc1nnc(-c2ccccn2)o1 (configuration not stated), the Potency is reported as inconclusive: 7.94 µM [inhibitor, full curve].
With Cc1nc(SCC(=O)Nc2ccc(F)cc2)c2oc3ccccc3c2n1 the “activity change, negative = inhibition” value was inactive: 2.39%.
With O=C1c2ccccc2C(O)(O)[C@@]1(O)[C@]1(O)C(=O)c2ccccc2C1(O)O the activity change, negative = inhibition was inactive: -5.17% [at 11.4 µM].
In the case of CCOc1ccc2[nH]c(=O)c(CN(CCCO)C(C)=O)cc2c1, the Potency is reported as inconclusive: 39.8 µM [inhibitor, single point].
For CC1CCCCN1S(=O)(=O)c1ccc2c(c1)CCN2C(=O)C1CCC1 (configuration not stated), the “activity change, negative = inhibition” value was inactive: -0.369%.
CC(=N/O)/C(=N\O)c1ccc(C)o1 was tested, and the Potency was inconclusive: 15.8 µM [inhibitor, partial curve].
Cn1c(Sc2ccc(-c3cccnc3)n2C)ccc1-c1cccnc1 was tested, and the Potency was inconclusive: 1.58 µM [inhibitor, partial curve].
O=[N+]([O-])c1c(Cl)cc(Cl)cc1Cl was tested, and the “activity change, negative = inhibition” value was inactive: -0.568%.
In the case of Cc1cc2c(=O)n(Cc3ccco3)c(SCC(=O)c3ccc(Cl)s3)nc2s1, the Potency is reported as inconclusive: 3.98 µM [inhibitor, single point].
With C=CCNC(=O)c1c(N)n(-c2cccc(S(N)(=O)=O)c2)c2nc3ccccc3nc12 the Potency was inconclusive: 39.8 µM [inhibitor, single point].
With CCOC(=O)c1c(CN(CC)CC)oc2cc(Br)c(O)cc12 the Potency was active: 3.98 µM.
C=C(C)C1CC=C(C)C(O)C1 (configuration not stated) was tested, and the “activity change, negative = inhibition” value was inactive: 1.28%.
O=C(c1ccc2c(c1)OCCO2)C1CCN(C(=O)c2ccc(F)c(F)c2)CC1 was tested, and the Potency was inconclusive: 39.8 µM [inhibitor, single point].
For N#Cc1ccsc1NC(=O)CSc1ncnc2ccccc12, the Potency was inconclusive: 1.58 µM [inhibitor, single point].
In the case of CCN=c1sc(C(=O)NCCc2ccccc2)cc(=O)n1CC, the Potency is reported as inconclusive: 39.8 µM [inhibitor, single point].
In the case of COCC(=O)N(Cc1cc2cc(OC)ccc2[nH]c1=O)c1ccccc1OC, the “activity change, negative = inhibition” value is reported as inactive: -19.6%.
With CCn1cc(C(=O)O)c(=O)c2cc(F)c(N3CCN(C(=O)Nc4ccccc4)CC3)cc21 the Potency was active: 25.1 µM.
With COc1ccc(-c2nc(C#N)c(NCC3CCCO3)o2)cc1 (configuration not stated) the Potency was active: 31.6 µM.
C=CCSc1nnc(-c2c[nH]c3ccccc23)n1CCOC was tested, and the “activity change, negative = inhibition” value was inactive: 6.64%.
COCCNC(=O)c1ccc(Cn2c(=S)[nH]c3cc4c(cc3c2=O)OCO4)cc1 was tested, and the Potency was inconclusive: 39.8 µM [inhibitor, single point].
Cc1ccc(-c2nnc3c4ccccc4c(C)nn23)cc1NC(=O)c1ccco1 was tested, and the Potency was inconclusive: 31.6 µM [inhibitor, single point].
For CNc1cc(-c2ccccc2C)ncn1, the Potency was active: 31.6 µM.
With CCOC(=O)c1cc(C)[nH]c(=S)c1C#N the Potency was active: 1.26 µM.
Cc1nn(-c2ccccc2)c2sc(-c3n[nH]c(=S)o3)cc12 was tested, and the Potency was active: 20 µM.
For CC(C)(C)c1cc(C(=O)/C=C/c2ccc(C(=O)O)cc2)cc(C(C)(C)C)c1, the Potency was inconclusive: 3.16 µM [inhibitor, full curve].
COc1ccc2nc(Nc3nc(C)c(CCC(C)C)c(=O)[nH]3)nc(C)c2c1 was tested, and the Potency was inconclusive: 25.1 µM [inhibitor, partial curve].
With COc1nc(Nc2cccc(C)c2)nc(N2CCCCC2)n1 the Potency was inconclusive: 31.6 µM [inhibitor, single point].
In the case of COC(=O)c1cc2nc(-c3ccccc3)cc(C)n2n1, the Potency is reported as active: 6.31 µM.
With CCOC(=O)c1c(-c2ccccc2)csc1NC(=O)c1nn(CC)cc1Br the Potency was active: 31.6 µM.
With N#CCCn1c(=O)c(-c2cc(F)cc(F)c2)nc2cnc(Oc3cccc(Cl)c3)nc21 the Potency was inconclusive: 3.98 µM [inhibitor, full curve].
For COc1ccc(C2C3=C(CCCC3=O)Nc3nc(SCc4ccccc4)nn32)cc1OC (configuration not stated), the Potency was inconclusive: 39.8 µM [inhibitor, single point].
With COc1cccc(Nc2ncc3nc(C)c(=O)n(C[C@H]4CCCO4)c3n2)c1 the “activity change, negative = inhibition” value was inactive: -3.17%.
For CS(=O)(=O)c1ccc2nc(NC(=O)Cc3ccccc3)sc2c1, the Potency was inconclusive: 15.8 µM [inhibitor, partial curve].
In the case of Cc1ccc(-c2nn(-c3ccccc3)cc2/C=C(\C#N)c2cccc(C#N)c2)o1, the “activity change, negative = inhibition” value is reported as inactive: 40.6%.
Cc1ccccc1OCc1nc(-c2ccc(NC(=O)c3ccco3)cc2)no1 was tested, and the Potency was inconclusive: 31.6 µM [inhibitor, single point].
In the case of Cc1cnc(-c2nnc(N(C)C(=O)C3CCOC3)s2)cn1 (configuration not stated), the Potency is reported as active: 25.1 µM.
With C=CCC(=O)OCC(=O)Nc1ccc(Oc2ccccc2)cc1 the “activity change, negative = inhibition” value was inactive: 4.65%.
In the case of Nc1c(C(=O)NCc2ccc3c(c2)OCO3)c2nc3ccccc3nc2n1CCCN1CCOCC1, the Potency is reported as inconclusive: 25.1 µM [inhibitor, single point].
With C=C(C)CSc1nc(N)c(C#N)c(-c2ccc(C)cc2)c1C#N the Potency was inconclusive: 39.8 µM [inhibitor, single point].
For Oc1ccc(O)cc1, the Potency was active: 1.26 µM and active: 398 nM.
With CCc1ccc(CNc2ccc(O)cc2)cc1 the Potency was active: 15.8 µM.
For COC(=O)C(F)(F)Sc1c(C)[nH]c2ccccc12, the Potency was inconclusive: 15.8 µM [inhibitor, partial curve].
In the case of CCCCCC(=O)Nc1ccc2oc(-c3cncc(Br)c3)nc2c1, the Potency is reported as inconclusive: 39.8 µM [inhibitor, single point].
COC(=O)c1cc(N2C(=O)C3C(C2=O)C2(C)C=CC3(C)O2)ccc1Cl (configuration not stated) was tested, and the Potency was inconclusive: 1.26 µM [inhibitor, full curve, poor fit].
With CCOC(=O)C1CCN(S(=O)(=O)C(F)(F)c2nc3ccccc3s2)CC1 the Potency was inconclusive: 39.8 µM [inhibitor, single point].
In the case of COc1cccc(-c2ccc3ncnc(Nc4ccccc4)c3c2)c1, the Potency is reported as inconclusive: 39.8 µM [inhibitor, single point].
For COCC(=O)Nc1ccc(S(=O)(=O)NCCc2ccccc2)cc1, the “activity change, negative = inhibition” value was inactive: 5.16%.
COc1ccc2nc(NC(=O)c3ccoc3C)sc2c1 was tested, and the Potency was active: 25.1 µM.
With O=C(CSc1nnc(NCc2ccccc2)s1)c1ccco1 the Potency was inconclusive: 20 µM [inhibitor, partial curve].
With O=C(/C=C\c1ccc(O)c(O)c1)O[C@@H](Cc1ccc(O)c(O)c1)C(=O)O the Potency was active: 0.0251 µM.
For COC(=O)[C@@]1(Cc2ccc(F)cc2)[C@H]2c3cc(C(=O)N4CCCC4)n(CCc4ccc(O)c(O)c4)c3C[C@H]2CN1C(=O)c1ccccc1, the Potency was active: 15.8 µM.
For CC(C)CN1CC2(CCN(C(=O)c3cccc(F)c3)CC2)C1, the Potency was inconclusive: 3.16 µM [inhibitor, single point].
In the case of Cc1ccc(C)c(/C(O)=C2/C(=O)C(=O)N(CCN3CCOCC3)C2c2ccco2)c1 (configuration not stated), the Potency is reported as inconclusive: 39.8 µM [inhibitor, single point].
In the case of C/C=C/OC(=O)NC(c1ccccc1)[C@@]1(C(=O)OCC)CCCC1=O (some centres not stated), the activity change, negative = inhibition is reported as inactive: -3.92% [at 11.4 µM].
For CCCSc1nnc(Sc2nnnn2-c2ccccc2)s1, the Potency was inconclusive: 3.16 µM [inhibitor, single point].
In the case of Cc1nc(C)c(C(=O)Nc2ccccc2-c2ccccc2)o1, the Potency is reported as inconclusive: 31.6 µM [inhibitor, partial curve].
With O=C(Nc1nc(-c2ccccc2)cs1)C1CCCCN1S(=O)(=O)c1ccccc1 (configuration not stated) the Potency was inconclusive: 6.31 µM [inhibitor, partial curve, poor fit].
For COCCn1c(C)cc(C(=O)CSc2nnc3ccccn23)c1C, the “activity change, negative = inhibition” value was inactive: 2.29%.
For O=C(CSc1ncn[nH]1)Nc1nc(-c2ccccc2)ns1, the Potency was inconclusive: 39.8 µM [inhibitor, single point].
COc1ccc(C2CC(=O)N3CN(c4ccccc4F)CSC3=C2C#N)cc1OC (configuration not stated) was tested, and the Potency was active: 1.26 µM.
In the case of CCOc1ccc(CC(=O)Nc2c(C(N)=O)oc3ccccc23)cc1OCC, the “activity change, negative = inhibition” value is reported as inactive: 7.53%.
COc1ccc2[nH]cc(CCNc3cc(-c4ccccc4C(F)(F)F)ncn3)c2c1 was tested, and the Potency was inconclusive: 39.8 µM [inhibitor, single point].
